Assay results published in the supplement of paper PMC8728848.
Some of the results follow.

How the values were obtained:
Experiment in all cases: glycan array binding signal (z-score within array); higher = stronger binding
Conditions in all cases: glycan notation: IUPAC condensed, linker removed
[1] = target: Gal3S(b1-3)[Fuc(a1-4)]GlcNAc
Summary of the method: (§1)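 The binding signal is a Z-score computed within each array. Data were drawn from 3228 arrays in the Consortium for Functional Glycomics database, restricted to those with a known protein sequence. Scores were averaged over arrays of the same protein sequence at different concentrations or buffers, and over linkers, and negative values can be taken as non-binding.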

[2] = target: Gal3S(b1-4)Glc
Summary of the method: as §1

[3] = target: Gal3S(b1-4)Glc6S
Summary of the method: as §1

[4] = target: Gal3S(b1-4)GlcNAc
Summary of the method: as §1

[5] = target: Gal3S(b1-4)[Fuc(a1-3)]Glc6S
Summary of the method: as §1

[6] = target: Gal3S(b1-4)[Fuc(a1-3)]GlcNAc
Summary of the method: as §1

[7] = target: Gal3S(b1-4)[Fuc(a1-3)]GlcNAc6S
Summary of the method: as §1

[8] = target: Gal3S4S(b1-4)GlcNAc
Summary of the method: as §1

[9] = target: Gal3S6S(b1-4)GlcNAc
Summary of the method: as §1

[10] = target: Gal3S6S(b1-4)GlcNAc6S
Summary of the method: as §1

[11] = target: Gal4S(b1-4)GlcNAc
Summary of the method: as §1

[12] = target: Gal4S6S(b1-4)GlcNAc
Summary of the method: as §1

[13] = target: Gal6P(b1-4)GlcNAc
Summary of the method: as §1

[14] = target: Gal6S(b1-3)GlcNAc
Summary of the method: as §1

[15] = target: Gal6S(b1-3)GlcNAc6S
Summary of the method: as §1

[16] = target: Gal6S(b1-4)Glc
Summary of the method: as §1

[17] = target: Gal6S(b1-4)Glc6S
Summary of the method: as §1

[18] = target: Gal6S(b1-4)GlcNAc
Summary of the method: as §1

[19] = target: Gal6S(b1-4)GlcNAc6S
Summary of the method: as §1

[20] = target: GalNAc(a1-3)Gal
Summary of the method: as §1

[21] = target: GalNAc(a1-3)GalNAc
Summary of the method: as §1

[22] = target: GalNAc(a1-3)GalNAc(b1-3)Gal(a1-4)Gal(b1-4)Glc
Summary of the method: as §1

[23] = target: GalNAc(a1-3)GalNAc(b1-3)Gal(a1-4)Gal(b1-4)GlcNAc
Summary of the method: as §1

[24] = target: GalNAc(b1-3)Gal
Summary of the method: as §1

[25] = target: GalNAc(b1-3)Gal(a1-4)Gal(b1-4)GlcNAc
Summary of the method: as §1

[26] = target: GalNAc(b1-3)Gal(a1-4)Gal(b1-4)GlcNAc(b1-3)Gal(b1-4)Glc
Summary of the method: as §1

[27] = target: GalNAc(b1-3)Gal(a1-6)Gal(b1-4)Glc
Summary of the method: as §1

[28] = target: GalNAc(b1-3)GalNAc
Summary of the method: as §1

[29] = target: GalNAc(b1-3)GlcNAc
Summary of the method: as §1

[30] = target: GalNAc(b1-4)Gal(b1-4)Glc
Summary of the method: as §1

[31] = target: GalNAc(b1-4)GlcNAc
Summary of the method: as §1

[32] = target: GalNAc(b1-4)GlcNAc(b1-2)Man
Summary of the method: as §1

[33] = target: GalNAc(b1-4)GlcNAc(b1-2)Man(a1-3)[GalNAc(b1-4)GlcNAc(b1-2)Man(a1-6)]Man(b1-4)GlcNAc(b1-4)GlcNAc
Summary of the method: as §1

[34] = target: GalNAc(b1-4)GlcNAc(b1-3)GalNAc(b1-4)GlcNAc
Summary of the method: as §1

[35] = target: GalNAc(b1-4)GlcNAc6S
Summary of the method: as §1

[36] = target: GalNAc(b1-6)GalNAc
Summary of the method: as §1

[37] = target: GalNAc3S(b1-4)GlcNAc
Summary of the method: as §1

[38] = target: GalNAc3S(b1-4)GlcNAc3S
Summary of the method: as §1

[39] = target: GalNAc3S(b1-4)[Fuc(a1-3)]GlcNAc
Summary of the method: as §1

[40] = target: GalNAc4S6S(b1-4)GlcNAc
Summary of the method: as §1

[41] = target: GalNAc6S(b1-4)GlcNAc
Summary of the method: as §1

[42] = target: Glc(a1-4)Glc
Summary of the method: as §1

[43] = target: Glc(a1-4)Glc(a1-4)Glc(a1-4)Glc
Summary of the method: as §1

[44] = target: Glc(a1-6)Glc(a1-6)Glc
Summary of the method: as §1

[45] = target: Glc(a1-6)Glc(a1-6)Glc(a1-6)Glc
Summary of the method: as §1

B1: CrataBL (Crataeva tapia), C0HJA4 (protein)
chain: AILTGVPYYILPSTSRAGFSPDNLRKNTSQLSCPLDLITQLRFPRRIGVPVIFTPQNSSLKVVPLSHNLNIHTCSDLWFCPESKIWTVKSSLTHGGSVVTTGGTFRSLGSWFRIERHGDSYKLVHCPRGSTPCRDVGIETVGGGGRRYLAPRDRPLAVRFTRASG
glycan array binding signal (z-score) [1]: -0.072
glycan array binding signal (z-score) [2]: -0.401
glycan array binding signal (z-score) [3]: 2.03
glycan array binding signal (z-score) [4]: -0.021
glycan array binding signal (z-score) [5]: 0.98
glycan array binding signal (z-score) [6]: 0.244
glycan array binding signal (z-score) [7]: 5.22
glycan array binding signal (z-score) [8]: 2.38
glycan array binding signal (z-score) [9]: 3.14
glycan array binding signal (z-score) [10]: 11.7
glycan array binding signal (z-score) [11]: -0.147
glycan array binding signal (z-score) [12]: 1.86
glycan array binding signal (z-score) [13]: -0.477
glycan array binding signal (z-score) [14]: 1.17
glycan array binding signal (z-score) [15]: 6.61
glycan array binding signal (z-score) [16]: 0.117
glycan array binding signal (z-score) [17]: 2.96
glycan array binding signal (z-score) [18]: 0.307
glycan array binding signal (z-score) [19]: 5.29
glycan array binding signal (z-score) [20]: -0.242
glycan array binding signal (z-score) [21]: -0.381
glycan array binding signal (z-score) [22]: -0.362
glycan array binding signal (z-score) [23]: -0.222
glycan array binding signal (z-score) [24]: -0.46
glycan array binding signal (z-score) [25]: -0.104
glycan array binding signal (z-score) [26]: -0.134
glycan array binding signal (z-score) [27]: -0.528
glycan array binding signal (z-score) [28]: -0.27
glycan array binding signal (z-score) [29]: -0.306
glycan array binding signal (z-score) [30]: 0.515
glycan array binding signal (z-score) [31]: 0.012
glycan array binding signal (z-score) [32]: -0.071
glycan array binding signal (z-score) [33]: -0.47
glycan array binding signal (z-score) [34]: -0.278
glycan array binding signal (z-score) [35]: 1.01
glycan array binding signal (z-score) [36]: -0.223
glycan array binding signal (z-score) [37]: 0.332
glycan array binding signal (z-score) [38]: 1.59
glycan array binding signal (z-score) [39]: 0.423
glycan array binding signal (z-score) [40]: 5.23
glycan array binding signal (z-score) [41]: 0.105
glycan array binding signal (z-score) [42]: -0.279
glycan array binding signal (z-score) [43]: 0.623
glycan array binding signal (z-score) [44]: -0.469
glycan array binding signal (z-score) [45]: 0.298
